Results taken from the supplement of paper PMC3334620.
Whole data set: some 33,000 sequences, median “E-score (-0.5 to 0.5)” near -0.035, cut for the highest 2% near 0.35. Some of the results follow.

target: T1, Pdr3 (UniProt P33200); test: PBM E-score (8-mer binding enrichment) (E-score (-0.5 to 0.5)); higher = stronger / more preferred TF binding; most listed sequences are background and not binding sites; settings: protein concentration: 200 nM; construct: GST-full length
T1 sequence: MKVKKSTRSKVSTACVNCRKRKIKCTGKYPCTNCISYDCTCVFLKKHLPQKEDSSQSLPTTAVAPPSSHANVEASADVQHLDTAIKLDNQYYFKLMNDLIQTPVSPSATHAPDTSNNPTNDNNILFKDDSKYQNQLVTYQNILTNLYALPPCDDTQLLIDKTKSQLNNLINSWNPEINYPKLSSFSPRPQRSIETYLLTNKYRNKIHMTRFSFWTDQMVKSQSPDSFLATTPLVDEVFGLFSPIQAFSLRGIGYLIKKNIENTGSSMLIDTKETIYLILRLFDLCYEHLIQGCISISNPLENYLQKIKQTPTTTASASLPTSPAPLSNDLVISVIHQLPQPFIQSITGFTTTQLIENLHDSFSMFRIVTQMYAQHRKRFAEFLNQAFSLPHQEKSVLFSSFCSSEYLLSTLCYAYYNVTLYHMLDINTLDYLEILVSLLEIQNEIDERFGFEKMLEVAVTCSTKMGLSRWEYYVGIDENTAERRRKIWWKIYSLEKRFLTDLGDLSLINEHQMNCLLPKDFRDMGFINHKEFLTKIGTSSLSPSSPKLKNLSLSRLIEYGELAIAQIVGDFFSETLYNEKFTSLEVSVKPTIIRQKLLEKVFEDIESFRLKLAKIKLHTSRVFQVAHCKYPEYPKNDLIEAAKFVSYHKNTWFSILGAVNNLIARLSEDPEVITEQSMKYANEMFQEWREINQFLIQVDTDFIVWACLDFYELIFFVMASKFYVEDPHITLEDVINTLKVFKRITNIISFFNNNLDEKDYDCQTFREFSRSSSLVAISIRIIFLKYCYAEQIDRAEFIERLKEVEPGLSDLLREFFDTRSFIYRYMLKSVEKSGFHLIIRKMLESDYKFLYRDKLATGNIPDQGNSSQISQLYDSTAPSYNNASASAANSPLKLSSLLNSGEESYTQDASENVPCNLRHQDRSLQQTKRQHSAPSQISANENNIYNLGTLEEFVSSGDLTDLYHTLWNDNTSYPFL
Procedure, shortened: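 Yeast transcription factors carrying a GST tag, as full-length proteins or DNA-binding domains, were produced by PURExpress in vitro transcription/translation. About 100-200 nM protein was applied to universal all-10-mer Agilent arrays, double-stranded by primer extension on fresh or once-stripped slides. Bound protein was detected with fluorescent anti-GST, and scans were normalised with masliner. The Universal PBM Analysis Suite gave each ungapped eight-base word, pooled with its reverse complement, an E-score, a modified Wilcoxon-Mann-Whitney statistic.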

Sequence | PBM E-score
AGAGTAGA | -0.0981
CGAAAATA | 0.081
GAGAGTTA | -0.216
ATCTCTTC | 0.0745
ACTCGCGC | 0.0916
AGATCAGC | 0.226
CCATTACC | 0.0713
AAACTTAT | 0.155
AGGCAAGA | -0.176
TGGGTCAA | -0.108
CTTTATTA | -0.194
CATCCGCA | 0.237
CGACGACG | 0.0887
GCGAGAAC | 0.0877
TACGGCCA | -0.0624
GCATCCGA | 0.213
AGTCGACC | 0.0168
ATGGGCAG | -0.0782
CCCGAAGA | 0.0276
CCAAACGA | -0.0534
GCCTAGGA | -0.2
CAATTGAG | 0.189

Sequence | PBM E-score
CTGCTTGC | -0.0808
ACACCCCG | 0.156
ACAGCACA | -0.0356
GCCCCGCA | 0.0442
CGGCTTTA | 0.13
ACTTAGCT | -0.244
ATCTGTAA | 0.0238
AACTAACG | 0.0937
ACCTGTCT | -0.123
ACGGAGCT | 0.244
ATTTTCTG | -0.0778
AAGCCCCA | -0.179
ATAACTGC | -0.193
AGCAAGTC | -0.23
ATCTATCG | -0.133
GGACTAAA | 0.0198
CGATCGGC | 0.111
AAAGTCGC | 0.0957
AATCAGAG | -0.0237
CGGACTGA | 0.222
GTAACACA | 0.0441
AACAGTAG | -0.0739

Sequence | PBM E-score
CGCCCCTA | 0.107
CAAGAGAA | 0.103
ACGACGTC | -0.0975
CGTACTGA | -0.0142
GCGTCACA | -0.149
ACGTCGGC | 0.0854
CCTCCAAA | -0.151
AGTAAGAG | -0.243
CACACCGC | 0.166
AACATAGG | -0.0569
TAAACTGA | -0.0927
GATTCTAA | -0.0897
GTCATTGA | -0.152
AAATCGGA | 0.326
AAGTCCGG | 0.3
ACCGCACA | -0.2
ACCTATTC | -0.175
AAAGGCTA | -0.215
AGCTGACA | -0.0375
AGCGGCCT | 0.0486
CCGTATTC | 0.178
GCTAAGTA | -0.0542

Sequence | PBM E-score
CCTTTGCA | -0.164
ACAAGGGA | -0.234
ACGCTCGA | -0.116
AGTTGTAG | -0.153
GCTGCGCA | 0.101
CGTCCACC | -0.0398
AAAACAAT | 0.131
CTCTCAAA | -0.163
AAGCTGGT | 0.0448
TGAAGCCA | -0.208
ATAACAGC | -0.0612
CCACGTTC | 0.00025
ATTGCTTG | -0.156
GGTAAGGA | -0.294
GCGAGCGC | 0.147
GCACTCAC | -0.0842
GGCTTAAA | 0.0305
CATTGGGC | -0.245
ATCCTTCA | -0.0778
GACTTCAC | 0.038
GCGTTTTA | -0.0458
CACGATAC | 0.00828

Sequence | PBM E-score
AATTAAAT | 0.0294
CAGCCGAG | 0.129
CCATTTCC | 0.241
AGACTCCA | -0.123
AAGTACCA | -0.0226
TATAGGCA | -0.171
TAGTTGAA | 0.00489
TCACGCCA | -0.033
GTCCAAGA | -0.16
AATAATAA | 0.0462
AGGGTCCC | 0.0499
ATCCCTGA | -0.138
GCGAAGCC | -0.156
CCGAAAAG | 0.12
GTTCGACA | 0.0381
AGCTTTGG | -0.231
AAACAGAT | -0.147
ACGTAATG | -0.044
CTGTCTCA | -0.142
CAATATCC | 0.226
CCGGCTCC | 0.345
AGGGCCAC | -0.179
